The target in assay [1] is human FcγRIIIa(F) (human) (UniProt P08637). Briefly: SPR (Biacore), antibody captured, FcγR as analyte. For orientation: Surface plasmon resonance follows binding to a sensor surface in real time, without labels.
For assay [2], the target named is human FcγRIIb (human) (UniProt P31994). Kind of assay: SPR (Biacore), captured antibody, FcγR analyte; bound amount per captured amount vs GpH7-B3/GpL16-k0 x100.
In assay [3] the target is human FcγRIIIa(F) (human) (UniProt P08637). Described as above.
The next assay has as its target human FcγRIIa(R) (human) (UniProt P12318). Kind of assay: Biacore, captured antibody, FcγR analyte.
Assay [4] addresses human FcγRIIIa(F) (human) (UniProt P08637). Briefly: Biacore, captured antibody, FcγR analyte.
The target in assay [5] is human FcγRIIa(H) (human) (UniProt P12318). Kind of assay: SPR (Biacore), captured antibody, FcγR analyte; bound amount per captured amount vs GpH7-B3/GpL16-k0 x100.
Assay [6] has as its target human FcγRIIIa(F) (human) (UniProt P08637). Kind of assay: SPR (Biacore), captured antibody, FcγR analyte; bound amount relative to GpH7-B3/GpL16-k0 x100.
For assay [7], the target named is human FcγRIIb (human) (UniProt P31994). Briefly: SPR (Biacore), captured antibody, FcγR analyte; bound/captured amount vs control x100.
Assay [8] has as its target human FcγRIa (human) (UniProt P12314). Described as above.
Chain of UniProt P12314 (P12314 16-292 limits assumed): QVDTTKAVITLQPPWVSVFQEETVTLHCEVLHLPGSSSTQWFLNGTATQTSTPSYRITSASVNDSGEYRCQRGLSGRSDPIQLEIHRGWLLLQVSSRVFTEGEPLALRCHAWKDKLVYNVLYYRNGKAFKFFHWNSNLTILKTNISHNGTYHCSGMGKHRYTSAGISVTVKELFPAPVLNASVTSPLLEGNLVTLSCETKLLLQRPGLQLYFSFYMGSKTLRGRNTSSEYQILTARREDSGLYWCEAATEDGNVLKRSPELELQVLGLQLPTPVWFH
For assay [9] the target is unchanged. Briefly: Biacore, captured antibody, FcγR analyte.
Assay [10] has as its target human FcγRIIa(H) (human) (UniProt P12318). Briefly: SPR (Biacore), captured antibody, FcγR analyte; bound/captured amount vs control x100.

The results in this text go back to patent publication US20140105889A1.

Chain of UniProt P08637 (P08637 other isoform, or with tags, fused parts or gaps limits assumed): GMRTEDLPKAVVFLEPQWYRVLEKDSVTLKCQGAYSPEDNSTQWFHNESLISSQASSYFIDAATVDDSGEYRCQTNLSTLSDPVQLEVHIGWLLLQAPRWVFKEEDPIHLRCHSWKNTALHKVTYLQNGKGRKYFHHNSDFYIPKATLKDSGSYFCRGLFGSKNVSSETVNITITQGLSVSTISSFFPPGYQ
Chain of UniProt P31994 (P31994 43-217 limits assumed): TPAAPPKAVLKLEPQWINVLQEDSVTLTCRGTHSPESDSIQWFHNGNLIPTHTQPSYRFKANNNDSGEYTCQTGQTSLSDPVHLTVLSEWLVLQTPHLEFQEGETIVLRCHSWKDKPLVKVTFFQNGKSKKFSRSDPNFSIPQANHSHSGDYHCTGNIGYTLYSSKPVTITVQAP

B1: GpH7-B3 D270Y / GpL16-k0 (antibody, human IgG1)
heavy: QVQLVQSGAEVKKPGASVTVSCKASGYTFTDYEMHWIRQPPGEGLEWIGAIDPKTGDTAYSESFQDRVTLTADKSTSTAYMELSSLTSEDTAVYYCTRFYSYTYWGQGTLVTVSS[here human IgG1 constant region with D270Y K439E (EU numbers) without letters]
light: DIVMTQSPLSLPVTPGEPASISCQASESLVHSNRNTYLHWYLQKPGQSPQLLIYKVSNRFSGVPDRFSGSGSGTDFTLKISRVEAEDVGVYYCSQNTHVPPTFGQGTKVEIE
Consider B1, for which the relative binding activity (amount bound / amount bound by GpH7-B3/GpL16-k0 x100) (% of GpH7-B3/GpL16-k0) in [1] came out at 9.

B2: GpH7-B3 E269I/GpL16-k0 (antibody, human IgG1)
heavy: QVQLVQSGAEVKKPGASVTVSCKASGYTFTDYEMHWIRQPPGEGLEWIGAIDPKTGDTAYSESFQDRVTLTADKSTSTAYMELSSLTSEDTAVYYCTRFYSYTYWGQGTLVTVSS[here human IgG1 constant region with E269I K439E (EU numbers) without letters]
light: B1 light
With B2, the relative binding activity (% of GpH7-B3/GpL16-k0) in the assay with human FcγRIIb (human) [2] stood at 9.

B3: GpH7-B3 Y296P / GpL16-k0 (antibody, human IgG1)
heavy: QVQLVQSGAEVKKPGASVTVSCKASGYTFTDYEMHWIRQPPGEGLEWIGAIDPKTGDTAYSESFQDRVTLTADKSTSTAYMELSSLTSEDTAVYYCTRFYSYTYWGQGTLVTVSS[here human IgG1 constant region with Y296P K439E (EU numbers) without letters]
light: B1 light
B3: the relative binding activity (amount bound / amount bound by GpH7-B3/GpL16-k0 x100) (% of GpH7-B3/GpL16-k0) in assay [1] worked out at 8.

B4: GpH7-B3 E269W/GpL16-k0 (antibody, human IgG1)
heavy: QVQLVQSGAEVKKPGASVTVSCKASGYTFTDYEMHWIRQPPGEGLEWIGAIDPKTGDTAYSESFQDRVTLTADKSTSTAYMELSSLTSEDTAVYYCTRFYSYTYWGQGTLVTVSS[here human IgG1 constant region with E269W K439E (EU numbers) without letters]
light: B1 light
For the molecule B4, the relative binding activity (% of GpH7-B3/GpL16-k0) in assay [3] was 9.

B5: GpH7-B3 L234G/GpL16-k0 (antibody, human IgG1)
heavy: QVQLVQSGAEVKKPGASVTVSCKASGYTFTDYEMHWIRQPPGEGLEWIGAIDPKTGDTAYSESFQDRVTLTADKSTSTAYMELSSLTSEDTAVYYCTRFYSYTYWGQGTLVTVSS[here human IgG1 constant region with L234G K439E (EU numbers) without letters]
light: B1 light
In the assay with human FcγRIIa(R) (human), B5 displayed a relative binding activity (% of GpH7-B3/GpL16-k0) of 9.

B6: GpH7-B3 G236N/GpL16-k0 (antibody, human IgG1)
heavy: QVQLVQSGAEVKKPGASVTVSCKASGYTFTDYEMHWIRQPPGEGLEWIGAIDPKTGDTAYSESFQDRVTLTADKSTSTAYMELSSLTSEDTAVYYCTRFYSYTYWGQGTLVTVSS[here human IgG1 constant region with G236N K439E (EU numbers) without letters]
light: B1 light
In [4], B6 had a relative binding activity (% of GpH7-B3/GpL16-k0) of 8.

B7: GpH7-B3 L235R/GpL16-k0 (antibody, human IgG1)
heavy: QVQLVQSGAEVKKPGASVTVSCKASGYTFTDYEMHWIRQPPGEGLEWIGAIDPKTGDTAYSESFQDRVTLTADKSTSTAYMELSSLTSEDTAVYYCTRFYSYTYWGQGTLVTVSS[here human IgG1 constant region with L235R K439E (EU numbers) without letters]
light: B1 light
B7 returned a relative binding activity (% of GpH7-B3/GpL16-k0) in assay [4] of 9.

B8: GpH7-B3 G236M/GpL16-k0 (antibody, human IgG1)
heavy: QVQLVQSGAEVKKPGASVTVSCKASGYTFTDYEMHWIRQPPGEGLEWIGAIDPKTGDTAYSESFQDRVTLTADKSTSTAYMELSSLTSEDTAVYYCTRFYSYTYWGQGTLVTVSS[here human IgG1 constant region with G236M K439E (EU numbers) without letters]
light: B1 light
For the molecule B8, the relative binding activity (% of GpH7-B3/GpL16-k0) in [4] worked out at 9.

B9: GpH7-B3 V266F/GpL16-k0 (antibody, human IgG1)
heavy: QVQLVQSGAEVKKPGASVTVSCKASGYTFTDYEMHWIRQPPGEGLEWIGAIDPKTGDTAYSESFQDRVTLTADKSTSTAYMELSSLTSEDTAVYYCTRFYSYTYWGQGTLVTVSS[here human IgG1 constant region with V266F K439E (EU numbers) without letters]
light: B1 light
Consider B9, for which the relative binding activity (% of GpH7-B3/GpL16-k0) with human FcγRIIa(H) (human) [5] came out at 8.

B10: GpH7-B3 G236Q/GpL16-k0 (antibody, human IgG1)
heavy: QVQLVQSGAEVKKPGASVTVSCKASGYTFTDYEMHWIRQPPGEGLEWIGAIDPKTGDTAYSESFQDRVTLTADKSTSTAYMELSSLTSEDTAVYYCTRFYSYTYWGQGTLVTVSS[here human IgG1 constant region with G236Q K439E (EU numbers) without letters]
light: B1 light
In [4], B10 registered a relative binding activity (% of GpH7-B3/GpL16-k0) of 8.

B11: GpH7-B3/GpL16-k0 with A327I introduced into GpH7-B3 (antibody, human IgG1)
heavy: QVQLVQSGAEVKKPGASVTVSCKASGYTFTDYEMHWIRQPPGEGLEWIGAIDPKTGDTAYSESFQDRVTLTADKSTSTAYMELSSLTSEDTAVYYCTRFYSYTYWGQGTLVTVSS[here human IgG1 constant region with A327I K439E (EU numbers) without letters]
light: B1 light
The molecule B11 displayed a relative binding activity (% of GpH7-B3/GpL16-k0) in [6] of 8.

B12: GpH7-B3 P238T/GpL16-k0 (antibody, human IgG1)
heavy: QVQLVQSGAEVKKPGASVTVSCKASGYTFTDYEMHWIRQPPGEGLEWIGAIDPKTGDTAYSESFQDRVTLTADKSTSTAYMELSSLTSEDTAVYYCTRFYSYTYWGQGTLVTVSS[here human IgG1 constant region with P238T K439E (EU numbers) without letters]
light: B1 light
B12: in the assay with human FcγRIIb (human) [7], the relative binding activity (% of GpH7-B3/GpL16-k0) was 8.

B13: GpH7-B3 D270T / GpL16-k0 (antibody, human IgG1)
heavy: QVQLVQSGAEVKKPGASVTVSCKASGYTFTDYEMHWIRQPPGEGLEWIGAIDPKTGDTAYSESFQDRVTLTADKSTSTAYMELSSLTSEDTAVYYCTRFYSYTYWGQGTLVTVSS[here human IgG1 constant region with D270T K439E (EU numbers) without letters]
light: B1 light
As to B13, the relative binding activity (amount bound / amount bound by GpH7-B3/GpL16-k0 x100) (% of GpH7-B3/GpL16-k0) in assay [1] was found to be 9.

B14: GpH7-B3 P238K/GpL16-k0 (antibody, human IgG1)
heavy: QVQLVQSGAEVKKPGASVTVSCKASGYTFTDYEMHWIRQPPGEGLEWIGAIDPKTGDTAYSESFQDRVTLTADKSTSTAYMELSSLTSEDTAVYYCTRFYSYTYWGQGTLVTVSS[here human IgG1 constant region with P238K K439E (EU numbers) without letters]
light: B1 light
Consider B14, for which the relative binding activity (% of GpH7-B3/GpL16-k0) with human FcγRIa (human) [8] was determined as 8.

B15: GpH7-B3 G236K/GpL16-k0 (antibody, human IgG1)
heavy: QVQLVQSGAEVKKPGASVTVSCKASGYTFTDYEMHWIRQPPGEGLEWIGAIDPKTGDTAYSESFQDRVTLTADKSTSTAYMELSSLTSEDTAVYYCTRFYSYTYWGQGTLVTVSS[here human IgG1 constant region with G236K K439E (EU numbers) without letters]
light: B1 light
In the assay with human FcγRIIa(R) (human), B15 had a relative binding activity (% of GpH7-B3/GpL16-k0) of 9.

B16: GpH7-B3 E269R/GpL16-k0 (antibody, human IgG1)
heavy: QVQLVQSGAEVKKPGASVTVSCKASGYTFTDYEMHWIRQPPGEGLEWIGAIDPKTGDTAYSESFQDRVTLTADKSTSTAYMELSSLTSEDTAVYYCTRFYSYTYWGQGTLVTVSS[here human IgG1 constant region with E269R K439E (EU numbers) without letters]
light: B1 light
For the molecule B16, the relative binding activity (% of GpH7-B3/GpL16-k0) in assay [3] was 7.

B17: GpH7-B3 L235T/GpL16-k0 (antibody, human IgG1)
heavy: QVQLVQSGAEVKKPGASVTVSCKASGYTFTDYEMHWIRQPPGEGLEWIGAIDPKTGDTAYSESFQDRVTLTADKSTSTAYMELSSLTSEDTAVYYCTRFYSYTYWGQGTLVTVSS[here human IgG1 constant region with L235T K439E (EU numbers) without letters]
light: B1 light
Consider B17, for which the relative binding activity (% of GpH7-B3/GpL16-k0) with human FcγRIa (human) [9] is 8.

B18: GpH7-B3 E269H/GpL16-k0 (antibody, human IgG1)
heavy: QVQLVQSGAEVKKPGASVTVSCKASGYTFTDYEMHWIRQPPGEGLEWIGAIDPKTGDTAYSESFQDRVTLTADKSTSTAYMELSSLTSEDTAVYYCTRFYSYTYWGQGTLVTVSS[here human IgG1 constant region with E269H K439E (EU numbers) without letters]
light: B1 light
Regarding B18, in the assay with human FcγRIIb (human) [2], the relative binding activity (% of GpH7-B3/GpL16-k0) turned out to be 8.

B19: GpH7-B3 G237A/GpL16-k0 (antibody, human IgG1)
heavy: QVQLVQSGAEVKKPGASVTVSCKASGYTFTDYEMHWIRQPPGEGLEWIGAIDPKTGDTAYSESFQDRVTLTADKSTSTAYMELSSLTSEDTAVYYCTRFYSYTYWGQGTLVTVSS[here human IgG1 constant region with G237A K439E (EU numbers) without letters]
light: B1 light
With B19, the relative binding activity (% of GpH7-B3/GpL16-k0) in the assay with human FcγRIIa(H) (human) [10] was 9.

B20: GpH7-B3 S239W/GpL16-k0 (antibody, human IgG1)
heavy: QVQLVQSGAEVKKPGASVTVSCKASGYTFTDYEMHWIRQPPGEGLEWIGAIDPKTGDTAYSESFQDRVTLTADKSTSTAYMELSSLTSEDTAVYYCTRFYSYTYWGQGTLVTVSS[here human IgG1 constant region with S239W K439E (EU numbers) without letters]
light: B1 light
Turning to B20, the relative binding activity (% of GpH7-B3/GpL16-k0) with human FcγRIIa(H) (human) [10] came out at 9.
